Assay results as given in PubChem BioAssay AID902 (National Center for Advancing Translational Sciences (NCATS), 2007).
Among all 130,000 compounds or so, about 1,900 (1.5%) were called active. The shares of active, inactive and inconclusive entries below differ from those in the screen. Calls come from the whole dose curve; as a rule, active = well fitted cell-killing curve with a large enough effect; inconclusive = small, poorly fitted or top-dose-only effect; inactive = no such curve, though single readings can be large or run the other way. Potencies beside an inconclusive call are fits to weak or partial responses and may not hold up.
% is set by controls: 0 for no effect and ±100 for the full control effect; potency is the fitted concentration of half-maximal effect; tags give direction and shape of the fitted curve.

Assay: qHTS Screen for Compounds that Selectively Target Cancer Cells with p53 Mutations: Cytotoxicity of p53ts Cells at the Nonpermissive Temperature; note: nearly all actives have a fitted effect of over 55% in size
Conditions: H1299-p53A138V viability at 39C, ATP luminescence, 24 h; activity change, negative = cell killing: at 46.1 µM (top of the series)
In the case of `COc1ccccc1C(=O)Nc1ccc2c(c1)nc(CN1CCN(C(C)=O)CC1)n2C`, the “activity change, negative = cell killing” value is reported as inactive: 9.23%.
For `N#Cc1nc(-c2cccs2)oc1N1CCN(c2ccccc2)CC1`, the “activity change, negative = cell killing” value was inactive: 0.0127%.
For `Cc1cccc(OCC(O)Cn2c(=N)n(CCN3CCCCC3)c3ccccc32)c1` (stereo unspecified), the Potency was active: 12.6 µM.
For `COC(=O)c1cccc(NC(=O)c2nsc3ccccc23)c1`, the Potency was active: 6.31 µM.
For `COc1nc(-c2ccccc2)ccc1-c1noc(-c2ccccc2Br)n1`, the Potency was inconclusive: 12.6 µM [cytotoxic, single point].
In the case of `Cc1c(-c2nc(-c3ccccc3F)no2)nnn1-c1cc(F)ccc1F`, the Potency is reported as inconclusive: 1.26 µM [cytotoxic, full curve].
In the case of `O=c1oc2cc(O)ccc2cc1-c1nnc(Nc2ccccc2F)s1`, the Potency is reported as inconclusive: 5.01 µM [cytotoxic, partial curve].
In the case of `COc1ccc(-n2c(-c3ccc(C)cc3)cc3c2CC(C)(C)CC3=O)c(OC)c1`, the Potency is reported as inconclusive: 12.6 µM [cytotoxic, single point].
With `Cc1ccccc1C(=O)NCCc1csc(-c2ccc(C(F)(F)F)cc2)n1` the Potency was inconclusive: 12.6 µM [cytotoxic, partial curve, poor fit].
With `Cc1ccc(/C=c2/sc3n(c2=O)CCCN=3)o1` the “activity change, negative = cell killing” value was inactive: -18.9%.
In the case of `CCOc1ccccc1NC(=O)Cn1c(=O)n(Cc2ccco2)c(=O)c2ccc(C(=O)NC3CCCC3)cc21`, the Potency is reported as inconclusive: 12.6 µM [cytotoxic, single point].
With `CCc1ccccc1NC(=O)C1CCN(C(=O)N2CC(C)Oc3ccc(Cl)cc32)CC1` (stereo unspecified) the Potency was inconclusive: 20 µM [cytotoxic, single point].
With `O=C(Nc1ccc(N2CCOCC2)c(Cl)c1)c1ncn[nH]1` the Potency was inconclusive: 15.8 µM [cytotoxic, partial curve].
For `Clc1ccc(-c2nnc(-c3ccccc3Cl)o2)cc1`, the Potency was inconclusive: 12.6 µM [cytotoxic, partial curve].
In the case of `Clc1ccc(OCc2nc3ccccc3n2Cc2ccccc2)c(Cl)c1`, the Potency is reported as inconclusive: 10 µM [cytotoxic, partial curve].
For `Cc1ccc(NC(=O)C(C)Sc2nnc(-c3cccnc3)o2)cc1` (stereo unspecified), the “activity change, negative = cell killing” value was inactive: 0.727%.
With `CCc1ccc2c(COC(=O)c3n[nH]c4ccccc34)cc(=O)oc2c1` the Potency was inconclusive: 31.6 µM [cytotoxic, single point].
In the case of `COc1cc(/C=C/c2nc(C#N)c(NCCc3ccccc3)o2)cc(OC)c1OC`, the “activity change, negative = cell killing” value is reported as inactive: -11.5%.
For `Cc1cccc(-c2nc(CSCC(=O)NCCc3ccc(Cl)cc3)c(C)o2)c1`, the Potency was inconclusive: 31.6 µM [cytotoxic, single point].
In the case of `CCOC(=O)c1cc2c(=O)n3ccccc3nc2n(CC(C)C)c1=NC(=O)COc1ccc(Cl)cc1`, the Potency is reported as inconclusive: 3.16 µM [cytotoxic, full curve, poor fit].
For `Cc1cccc(NC(=O)c2ccccc2O)c1C`, the “activity change, negative = cell killing” value was inactive: 12.1%.
In the case of `Cc1ccc(C)c(N2CCN(C(=O)c3cnn(C(C)(C)C)c3C3CCN(C(=O)OC(C)(C)C)CC3)CC2)c1`, the “activity change, negative = cell killing” value is reported as inactive: -11%.
In the case of `COc1ccc(NC(=O)c2cccs2)cc1OC`, the “activity change, negative = cell killing” value is reported as inactive: -14.5%.
With `Cc1cccc(NCc2ccccc2O)c1C` the Potency was inconclusive: 31.6 µM [cytotoxic, single point].
With `C=CCN1C=CC(=C/C=C(/C#N)C(=O)OCC)C=C1` the Potency was inconclusive: 7.08 µM [cytotoxic, partial curve].
In the case of `O=C(NCc1ccccc1)c1nc(S(=O)(=O)Cc2ccc(F)cc2)ncc1Cl`, the Potency is reported as active: 5.01 µM.
For `Cc1ccc(/C=C/c2onc(C)c2S(=O)(=O)N2CCC(C(=O)N3CCN(c4cccc(C)c4)C(C)C3)CC2)cc1` (stereo unspecified), the “activity change, negative = cell killing” value was inactive: -7.77%.
In the case of `Cc1nn(C(C)C(=O)NC2CCC(C)CC2)c(=O)c2c1sc1ccccc12` (stereo unspecified), the Potency is reported as active: 10 µM.
For `COc1cc2c(cc1NC(=O)COC(=O)Cn1cnc3ccccc31)oc1ccccc12`, the “activity change, negative = cell killing” value was inactive: -1.91%.
For `Cc1cc(/C=C2/C(=O)NN(c3ccccc3)C2=O)c(C)n1-c1cccc(O)c1`, the Potency was active: 12.6 µM.
With `CC1CN(C(=O)CCC(=O)NCc2cccc(Cl)c2)c2ccccc2S1` (stereo unspecified) the Potency was inconclusive: 20 µM [cytotoxic, partial curve].
For `O=C(O)c1ccc(Cn2cnc3cccnc32)cc1`, the Potency was inconclusive: 10 µM [cytotoxic, partial curve].
With `O=C(Nc1cccc(C(F)(F)F)c1)c1cc(-c2ccc(Cl)s2)nc2ccccc12` the Potency was inconclusive: 10 µM [cytotoxic, partial curve].
With `CC[C@H](C(=O)[C@H](C)[C@H](O)[C@H](C)CCc1ccc(C)c(O)c1C(=O)O)[C@H]1O[C@](CC)([C@@H]2CC[C@@](O)(CC)[C@H](C)O2)C[C@H]1C` the Potency was inconclusive: 15.8 µM [cytotoxic, single point].
In the case of `COc1cccc(-c2cc(C(=O)Nn3cnnc3)c3ccccc3n2)c1`, the Potency is reported as active: 5.01 µM.
With `COc1ccc(CC(=O)Nc2cc(-c3cn4cccnc4n3)ccc2C)cc1OC` the Potency was inconclusive: 25.1 µM [cytotoxic, partial curve].
In the case of `CC1=C(c2ccc(C(C)C)cc2)S(=O)(=O)N=C1N1CCC(C(=O)NCc2ccccc2)CC1`, the Potency is reported as inconclusive: 3.98 µM [cytotoxic, partial curve].
In the case of `CN(C)CC/C=C1\c2ccccc2COc2ccccc21`, the Potency is reported as “inactive”.
For `CCC(=O)/C=C/C1C(C)=CCCC1(C)C` (stereo unspecified), the “activity change, negative = cell killing” value was inactive: 10.6%.
In the case of `CN(C)S(=O)(=O)Nc1ccc(-c2cn3ccsc3n2)cc1`, the Potency is reported as inconclusive: 15.8 µM [cytotoxic, partial curve, poor fit].
With `CCCOC(=O)C(C)n1nnc2sc(-c3ccccc3)cc2c1=O` (stereo unspecified) the Potency was inconclusive: 12.6 µM [cytotoxic, partial curve, poor fit].
With `COc1ccccc1CNc1ncnc2ccc(-c3cccnc3)cc12` the “activity change, negative = cell killing” value was inactive: -0.14%.
For `O=C(Nc1ccc(N2CCCC2)c(Cl)c1)c1ccco1`, the Potency was active: 7.94 µM.
With `CCOc1ccc(NC(=O)Cn2c(CCC(=O)O)ccc2-c2ccc(Cl)cc2)cc1` the Potency was inconclusive: 0.0501 µM [cytotoxic, full curve].
In the case of `COc1ccc(-n2nnc3c(SCC(=O)OCc4ccccc4)ncnc32)cc1`, the Potency is reported as inconclusive: 20 µM [cytotoxic, single point].
In the case of `CCc1nnc(NC(=O)c2nc(S(C)(=O)=O)ncc2Cl)s1`, the Potency is reported as inconclusive: 31.6 µM [cytotoxic, single point].
With `O=C(NCCc1ccccc1)C(=O)NCC(c1cccnc1)N1CCN(c2ccc(F)cc2)CC1` (stereo unspecified) the Potency was active: 20 µM.
In the case of `COc1ccccc1-c1cc(C(F)(F)F)nc(S(=O)(=O)CCCC(=O)Nc2cc(Br)ccc2O)n1`, the Potency is reported as inconclusive: 31.6 µM [cytotoxic, single point].
In the case of `Cn1c(-c2ccc(N)cc2)nc2ccccc21`, the Potency is reported as inconclusive: 20 µM [cytotoxic, single point].
For `CCOc1ccccc1NC(=O)COc1cccc2c(=O)n(CCOC)ccc12`, the “activity change, negative = cell killing” value was inactive: -9.19%.
With `O=C(Nc1ccc2oc(-c3ccc4ccccc4c3)nc2c1)c1cc(Br)ccc1Cl` the Potency was inconclusive: 10 µM [cytotoxic, partial curve].
In the case of `COc1ccc(-c2[nH]ncc2C(=O)NCc2cccc(F)c2)cc1`, the “activity change, negative = cell killing” value is reported as inactive: -19.5%.
For `CC(=O)Nc1c(C(=O)Nc2cccc(C)c2)nnn1-c1ccc(C)cc1`, the Potency was inconclusive: 20 µM [cytotoxic, single point].
In the case of `Cc1cc(N2CCN(C)CC2)nc2ccc(NC(=O)Nc3ccccc3)cc12`, the Potency is reported as inconclusive: 15.8 µM [cytotoxic, partial curve].
With `O=C(c1cc(Br)ccc1O)c1cc(Br)ccc1O` the activity change, negative = cell killing was inactive: -7.02% [at 9.22 µM].
In the case of `O=C(CCS(=O)(=O)c1ccc(Br)s1)N1CCc2ccccc21`, the “activity change, negative = cell killing” value is reported as inactive: -12.8%.
With `Cc1ccc(CNC(=O)c2ccc3c(c2)N(Cc2ccccc2Cl)C(=O)CS3)cc1` the Potency was inconclusive: 15.8 µM [cytotoxic, single point].
In the case of `NC[C@@H]1O[C@H](c2ccccc2)Cc2c1ccc(O)c2O`, the Potency is reported as inconclusive: 15.8 µM [cytotoxic, partial curve].
With `O=C(CCn1c(=O)c2sccc2n(CC(=O)Nc2ccccc2)c1=O)NCc1ccccc1Cl` the Potency was inconclusive: 31.6 µM [cytotoxic, single point].
In the case of `COc1ccccc1CCC(=O)Nc1nc2ccccc2[nH]1`, the Potency is reported as inconclusive: 10 µM [cytotoxic, partial curve].
In the case of `CCC1CN(C(=O)N2CCC(C(=O)NCc3cc(OC)c(OC)c(OC)c3)CC2)c2ccccc2O1` (stereo unspecified), the Potency is reported as inconclusive: 31.6 µM [cytotoxic, single point].
For `CN(C)c1cccc(C(=O)Nc2nc3ccc(S(=O)(=O)N4CCCC4)cc3s2)c1`, the Potency was inconclusive: 12.6 µM [cytotoxic, partial curve, poor fit].
In the case of `CCOc1ccc2nc(N3CCCC(C(=O)Nc4cc(C)ccc4C)C3)sc2c1` (stereo unspecified), the Potency is reported as inconclusive: 5.01 µM [cytotoxic, full curve].
For `Cc1cc(NC(=O)CCc2nc3cccnc3n2Cc2cccs2)ccc1Br`, the Potency was inconclusive: 15.8 µM [cytotoxic, partial curve].
In the case of `O=C(O)c1ccc2nc(-c3cc4cc(Cl)ccc4oc3=O)[nH]c2c1`, the “activity change, negative = cell killing” value is reported as inactive: -22.4%.
For `Cn1c(SC2=CS(=O)(=O)c3ccccc32)nc2ccccc21`, the Potency was active: 12.6 µM.
With `CCC1Oc2ccccc2N(CC(=O)NCc2cc(OC)ccc2OC)C1=O` (stereo unspecified) the Potency was inconclusive: 20 µM [cytotoxic, partial curve].
For `COc1ccc(CCNC(=O)C2CCN(Cc3nc(-c4ccc(OC)c(OC)c4)oc3C)CC2)cc1OC`, the “activity change, negative = cell killing” value was inactive: -8.78%.
For `Cc1ccc(/C=C(\C#N)C(=O)Nc2cccc(Cl)c2)o1`, the Potency was inconclusive: 15.8 µM [cytotoxic, partial curve].
With `O=C(NCC1CCCO1)c1ccccc1-c1nc(-c2ccc(Cl)cc2)no1` (stereo unspecified) the “activity change, negative = cell killing” value was inactive: -15%.
For `CCOc1ccccc1-c1nc(Cn2c(=O)cc(C)c3c(C)nn(-c4ccccc4)c32)c(C)o1`, the “activity change, negative = cell killing” value was inactive: -9.81%.
